# Measurements reported in the supplement of paper PMC8728848.
# The other results are listed elsewhere or left out.
# B1: NKR-PIC (Mus musculus) (protein)
# chain: GTGQKPSREKCCVFIQENLNKTTDCSVNLECPQDWLLHRDKCFHVSQVSNTWEEGQADCGRKGATLLLIQDQEELRFLLDSIKEKYNSFWIGLRFTLPDMNWKWINGTTFNSDVLKITGVTENGSCASILGDKVTPESCASDNRWICQKELNHETPSNDSGT
# Assays:
# Assay in all cases: glycan array binding signal (z-score within array); higher = stronger binding
# Settings in all cases: glycan notation: IUPAC condensed, linker removed
# [1] = target: Fuc(a1-2)Gal(b1-4)GlcNAc(b1-3)Gal(b1-4)GlcNAc(b1-2)Man(a1-3)[Fuc(a1-2)Gal(b1-4)GlcNAc(b1-3)Gal(b1-4)GlcNAc(b1-2)Man(a1-6)]Man(b1-4)GlcNAc(b1-4)GlcNAc
# Outline: (§1)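 The Consortium for Functional Glycomics database supplied 3228 glycan arrays, of which those lacking an available protein sequence were dropped. The binding signal, a within-array Z-score, was averaged across arrays of the same protein sequence and across linkers. Negative scores can be read as non-binding.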
# [2] = target: Fuc(a1-2)Gal(b1-4)GlcNAc(b1-3)Gal(b1-4)GlcNAc(b1-3)Gal(b1-4)GlcNAc
# Outline: as §1
# [3] = target: Fuc(a1-2)Gal(b1-4)GlcNAc(b1-3)GalNAc
# Outline: as §1
# [4] = target: Fuc(a1-2)Gal(b1-4)GlcNAc(b1-3)[Fuc(a1-2)Gal(b1-4)GlcNAc(b1-6)]GalNAc
# Outline: as §1
# [5] = target: Fuc(a1-2)Gal(b1-4)GlcNAc(b1-3)[Fuc(a1-3)[Gal(b1-4)]GlcNAc(b1-6)]Gal(b1-4)Glc
# Outline: as §1
# [6] = target: Fuc(a1-2)Gal(b1-4)GlcNAc(b1-6)GalNAc
# Outline: as §1
# [7] = target: Fuc(a1-2)Gal(b1-4)GlcNAc6S
# Outline: as §1
# [8] = target: Fuc(a1-2)Gal(b1-4)[Fuc(a1-3)]GlcNAc
# Outline: as §1
# [9] = target: Fuc(a1-2)Gal(b1-4)[Fuc(a1-3)]GlcNAc(b1-2)Man(a1-3)[Fuc(a1-2)Gal(b1-4)[Fuc(a1-3)]GlcNAc(b1-2)Man(a1-6)]Man(b1-4)GlcNAc(b1-4)[Fuc(a1-6)]GlcNAc
# Outline: as §1
# [10] = target: Fuc(a1-2)Gal(b1-4)[Fuc(a1-3)]GlcNAc(b1-2)[Fuc(a1-2)Gal(b1-4)[Fuc(a1-3)]GlcNAc(b1-4)]Man(a1-3)[Fuc(a1-2)Gal(b1-4)[Fuc(a1-3)]GlcNAc(b1-2)Man(a1-6)]Man(b1-4)GlcNAc(b1-4)GlcNAc
# Outline: as §1
# [11] = target: Fuc(a1-2)Gal(b1-4)[Fuc(a1-3)]GlcNAc(b1-3)Gal(b1-4)[Fuc(a1-3)]GlcNAc
# Outline: as §1
# [12] = target: Fuc(a1-2)Gal(b1-4)[Fuc(a1-3)]GlcNAc(b1-3)Gal(b1-4)[Fuc(a1-3)]GlcNAc(b1-3)Gal(b1-4)[Fuc(a1-3)]GlcNAc
# Outline: as §1
# [13] = target: Fuc(a1-2)Gal(b1-4)[Fuc(a1-3)]GlcNAc(b1-3)GalNAc
# Outline: as §1
# [14] = target: Fuc(a1-2)Gal(b1-4)[Fuc(a1-3)]GlcNAc(b1-3)[Neu5Ac(a2-6)Gal(b1-4)GlcNAc(b1-6)]Gal(b1-4)Glc
# Outline: as §1
# [15] = target: Fuc(a1-2)Gal3S(b1-4)GlcNAc
# Outline: as §1
# [16] = target: Fuc(a1-2)Gal6S(b1-3)GlcNAc
# Outline: as §1
# [17] = target: Fuc(a1-2)Gal6S(b1-3)GlcNAc6S
# Outline: as §1
# [18] = target: Fuc(a1-2)Gal6S(b1-4)Glc
# Outline: as §1
# [19] = target: Fuc(a1-2)Gal6S(b1-4)Glc6S
# Outline: as §1
# [20] = target: Fuc(a1-2)[Gal(a1-3)]Gal
# Outline: as §1
# [21] = target: Fuc(a1-2)[Gal(a1-3)]Gal(b1-3)GalNAc
# Outline: as §1
# [22] = target: Fuc(a1-2)[Gal(a1-3)]Gal(b1-3)GalNAc(b1-3)Gal(a1-4)Gal(b1-4)Glc
# Outline: as §1
# [23] = target: Fuc(a1-2)[Gal(a1-3)]Gal(b1-3)GlcNAc
# Outline: as §1
# [24] = target: Fuc(a1-2)[Gal(a1-3)]Gal(b1-3)GlcNAc(b1-2)Man(a1-3)[Fuc(a1-2)[Gal(a1-3)]Gal(b1-3)GlcNAc(b1-2)Man(a1-6)]Man(b1-4)GlcNAc(b1-4)GlcNAc
# Outline: as §1
# [25] = target: Fuc(a1-2)[Gal(a1-3)]Gal(b1-3)GlcNAc(b1-2)Man(a1-3)[Fuc(a1-2)[Gal(a1-3)]Gal(b1-3)GlcNAc(b1-2)Man(a1-6)]Man(b1-4)GlcNAc(b1-4)[Fuc(a1-6)]GlcNAc
# Outline: as §1
# [26] = target: Fuc(a1-2)[Gal(a1-3)]Gal(b1-3)GlcNAc(b1-3)GalNAc
# Outline: as §1
# [27] = target: Fuc(a1-2)[Gal(a1-3)]Gal(b1-3)GlcNAc(b1-6)GalNAc
# Outline: as §1
# [28] = target: Fuc(a1-2)[Gal(a1-3)]Gal(b1-4)Glc
# Outline: as §1
# [29] = target: Fuc(a1-2)[Gal(a1-3)]Gal(b1-4)GlcNAc
# Outline: as §1
# [30] = target: Fuc(a1-2)[Gal(a1-3)]Gal(b1-4)GlcNAc(b1-2)Man
# Outline: as §1
binder,measurement,setting,value
B1,glycan array binding signal (z-score),[1],-0.27
same,glycan array binding signal (z-score),[2],-0.32
same,glycan array binding signal (z-score),[3],-0.114
same,glycan array binding signal (z-score),[4],-0.311
same,glycan array binding signal (z-score),[5],-0.343
same,glycan array binding signal (z-score),[6],-0.261
same,glycan array binding signal (z-score),[7],-0.32
same,glycan array binding signal (z-score),[8],-0.316
same,glycan array binding signal (z-score),[9],-0.278
same,glycan array binding signal (z-score),[10],-0.33
same,glycan array binding signal (z-score),[11],-0.233
same,glycan array binding signal (z-score),[12],-0.285
same,glycan array binding signal (z-score),[13],-0.377
same,glycan array binding signal (z-score),[14],-0.323
same,glycan array binding signal (z-score),[15],-0.393
same,glycan array binding signal (z-score),[16],-0.248
same,glycan array binding signal (z-score),[17],-0.251
same,glycan array binding signal (z-score),[18],-0.317
same,glycan array binding signal (z-score),[19],-0.261
same,glycan array binding signal (z-score),[20],-0.304
same,glycan array binding signal (z-score),[21],-0.31
same,glycan array binding signal (z-score),[22],-0.329
same,glycan array binding signal (z-score),[23],-0.285
same,glycan array binding signal (z-score),[24],-0.385
same,glycan array binding signal (z-score),[25],-0.323
same,glycan array binding signal (z-score),[26],-0.407
same,glycan array binding signal (z-score),[27],-0.38
same,glycan array binding signal (z-score),[28],-0.406
same,glycan array binding signal (z-score),[29],0.014
same,glycan array binding signal (z-score),[30],-0.359
